# Test results as given in the supplement of paper PMC7826260.
# This is one part of the list. One pool of 16,384 single-stranded DNAs met each Rep nickase domain in vitro (1 h at 37 °C, 3 µM enzyme); the outer parts of the 90-letter strands are left off. The score is log2 (uncut reads / reads without enzyme); the lower, the more was cut; hits are not called. Shares of all reads are compared; where an enzyme cuts many sequences, the uncut ones exceed 0.
# Columns and labels:
# Assay in all cases: uncleaved DNA left, log2 of reads against the no-enzyme library (log2 ratio); higher = less cleavage (more negative = more Rep cleavage of the k-mer); sequences stand for … in CTCGTCCG…ACCGGAGA
# [1] = tested on: T1, Rep nickase domain of Muscovy duck circovirus
# T1 sequence (protein, residues 1-111, tag omitted): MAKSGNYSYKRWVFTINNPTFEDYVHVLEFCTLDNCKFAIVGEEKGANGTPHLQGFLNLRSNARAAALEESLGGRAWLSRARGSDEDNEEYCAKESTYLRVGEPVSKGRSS
# Procedure: (§1)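 A pool of 90-nt single-stranded DNAs with seven random bases just before the constant AC of the nick site (name = the seven bases) was cut by 3 µM recombinant His6-SUMO-tagged Rep nickase domain (300 nM DNA, 50 mM HEPES pH 8.0, 50 mM NaCl, 1 mM MnCl2, 1 h, 37 °C, three replicates). Uncut DNA was amplified and sequenced.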
# [2] = tested on: T2, Rep nickase domain of banana bunchy top virus
# T2 sequence (protein, residues 1-94, tag omitted): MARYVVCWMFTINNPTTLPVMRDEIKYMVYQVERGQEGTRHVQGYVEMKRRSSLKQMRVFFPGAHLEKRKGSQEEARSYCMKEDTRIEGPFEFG
# Procedure: as §1
# [3] = tested on: T3, Rep nickase domain of cabbage leaf curl virus
# T3 sequence (protein, residues 1-116, tag omitted): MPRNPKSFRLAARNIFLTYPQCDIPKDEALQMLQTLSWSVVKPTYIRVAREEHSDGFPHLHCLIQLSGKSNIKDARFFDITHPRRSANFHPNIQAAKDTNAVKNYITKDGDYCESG
# Procedure: as §1
# [4] = tested on: T4, Rep nickase domain of chickpea chlorotic dwarf virus
# T4 sequence (protein, residues 1-124, tag omitted): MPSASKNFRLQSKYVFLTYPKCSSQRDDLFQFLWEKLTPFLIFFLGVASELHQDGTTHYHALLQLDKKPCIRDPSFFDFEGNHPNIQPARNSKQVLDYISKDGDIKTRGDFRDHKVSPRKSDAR
# Procedure: as §1
# [5] = tested on: T5, Rep nickase domain of faba bean necrotic yellows virus
# T5 sequence (protein, residues 1-98, tag omitted): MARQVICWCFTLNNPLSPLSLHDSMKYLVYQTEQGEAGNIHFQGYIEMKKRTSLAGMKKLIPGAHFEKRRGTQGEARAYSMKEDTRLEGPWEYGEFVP
# Procedure: as §1
# [6] = tested on: T6, Rep nickase domain of maize striate mosaic virus
# T6 sequence (protein, residues 1-117, tag omitted): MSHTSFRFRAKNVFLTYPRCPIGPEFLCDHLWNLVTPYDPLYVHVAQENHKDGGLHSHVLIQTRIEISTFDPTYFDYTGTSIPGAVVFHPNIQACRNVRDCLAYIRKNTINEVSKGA
# Procedure: as §1
# [7] = tested on: T7, Rep nickase domain of porcine circovirus 2
# T7 sequence (protein, residues 2-116, tag omitted): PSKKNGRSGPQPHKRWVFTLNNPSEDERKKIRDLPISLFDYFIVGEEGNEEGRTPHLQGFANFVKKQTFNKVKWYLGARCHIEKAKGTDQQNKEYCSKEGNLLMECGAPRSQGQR
# Procedure: as §1
# [8] = tested on: T8, Rep nickase domain of tomato yellow leaf curl virus
# T8 sequence (protein, residues 1-136, tag omitted): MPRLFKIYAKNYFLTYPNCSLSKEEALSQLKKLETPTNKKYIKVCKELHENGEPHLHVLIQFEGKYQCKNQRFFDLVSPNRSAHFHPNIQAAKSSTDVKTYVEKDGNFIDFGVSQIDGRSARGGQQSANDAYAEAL
# Procedure: as §1
# [9] = tested on: T9, Rep nickase domain of wheat dwarf virus
# T9 sequence (protein, residues 1-137, tag omitted): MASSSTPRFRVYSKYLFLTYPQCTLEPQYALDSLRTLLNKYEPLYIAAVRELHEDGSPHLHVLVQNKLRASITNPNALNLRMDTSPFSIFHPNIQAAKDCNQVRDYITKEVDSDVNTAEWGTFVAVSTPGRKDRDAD
# Procedure: as §1
Sequence,uncleaved DNA left (log2) [1],uncleaved DNA left (log2) [2],uncleaved DNA left (log2) [3],uncleaved DNA left (log2) [4],uncleaved DNA left (log2) [5],uncleaved DNA left (log2) [6],uncleaved DNA left (log2) [7],uncleaved DNA left (log2) [8],uncleaved DNA left (log2) [9]
CACCATT,-0.0675,-0.101,-0.954,-2.67,-0.0497,-1.16,-2.73,0.00262,-0.0757
ATCACGG,0.0766,0.0953,0.48,1.34,0.0378,1.27,0.137,-0.0338,0.103
CCCCAGG,-0.0268,-0.168,0.316,0.93,-0.00751,0.548,0.0149,-0.203,-0.128
TTGACGA,0.0105,-0.051,-0.237,-0.372,-0.0551,-0.871,0.00275,0.0298,0.03
AGACCAG,0.0662,-0.00938,0.381,1.08,-0.00357,0.12,0.0753,0.0262,0.09
AGGAGAT,0.0257,0.133,0.25,1.78,0.0169,1.82,0.0961,-0.0875,0.167
TAGTGAG,0.0153,0.0105,-0.84,-0.519,-0.0135,-1.24,-0.112,0.0139,-0.0362
TGGATGG,0.0141,-0.0278,0.234,0.494,-0.0084,0.156,0.0169,-0.138,-0.00382
GGCCTGT,0.0356,0.0984,0.33,0.868,0.0299,1.77,0.184,0.0464,0.169
CAACCCG,-0.11,0.0391,-0.9,-0.983,-0.0546,-0.951,-1.46,0.0217,-0.0816
TCTAGCG,-0.034,-0.0724,-0.86,0.555,0.0764,-0.702,0.132,0.00613,-0.218
GCTCCAA,-0.123,-0.103,0.0253,0.389,-0.144,0.28,-0.159,-0.125,-0.119
GAGGTAA,0.101,0.15,0.402,1.04,0.0193,1.68,0.0602,0.0395,0.127
TGATTGC,-0.0166,-0.054,-0.829,-0.153,0.0214,-1.04,0.119,0.0292,-0.17
CATGTCC,-0.0192,-0.175,-0.2,-0.673,-0.133,-0.915,-0.19,-0.143,-0.25
